# From ChEMBL document CHEMBL4888484, “Replenishing the malaria drug discovery pipeline: Screening and hit evaluation of the MMV Hit Generation Library 1 (HGL1) against asexual blood stage Plasmodium falciparum ,using a nano luciferase reporter read-out” (2022)
# Screen size: about 150,000 compounds; about 540 (0.36%) showed an effect of 50% or more. This is one part of the list.
# Tested on: Plasmodium falciparum
# Assay: Primary screen in NF54 nanoGlo assay, in single point, at 2uM, 72h; a lower Z score goes with more inhibition
# Type: functional, Erythrocyte
# Details: timepoint 72 hour
Structure (SMILES),% Inhibition [%],Z score
CN(C)c1ccc([C@@H](CNC(=O)c2cccc(F)c2)c2c[nH]c3ccccc23)cc1,2,-0.26
FC(F)(F)Cn1ncnc1CCc1ccncc1,2,-0.26
O=C(CN1C(=O)CCC1=O)N1CCN(S(=O)(=O)c2ccc(Br)cc2)CC1,-14,1.24
O=C(Nc1ccnn1C1CCN(C2CCC2)CC1)c1ccc2c(c1)OCO2,-21,1.88
O=C(O)C1(Oc2cccc(F)c2)CCN(Cc2c[nH]cn2)CC1,-4,0.77
NC(=O)N1CC[C@H](NC(=O)Cc2cccc(Cl)c2Cl)C1,5,-0.42
Clc1cnc(-c2cccc3cnccc23)nc1,-20,1.96
O=c1[nH]c(-c2nccs2)nc2cc(Cl)c(Cl)cc12,-18,1.57
C[C@]1(F)CCCN(CCN2CCCC2=O)C1,-8,1.21
CCN(CCN1C[C@@H]2CC[C@H]1C2)Cc1noc(C2CCC2)n1,-3,0.59
O=C(Nc1nc(-c2ccccc2)cs1)[C@@H]1CCCO1,2,-0.16
CC1(c2noc(-c3ccccc3)n2)CCN(C(=O)CCC(=O)n2ncc3c(Cl)cccc32)CC1,-11,1.46
O=C1CCC2(CCNCC2)CN1CCOCc1ccc(Cl)cc1,-14,1.64
Cc1cccc(-c2noc(N3CCOCC3)c2CN(C(=O)CC(C)C)C2CC2)c1,-12,1.29
COCC(=O)N[C@H]1C[C@@H](C(=O)NCc2ccccc2F)N(C)C1,-8,1.63
CN(Cc1ccccn1)Cc1cncs1,-9,1.02
COc1ccc(-n2cccn2)cc1S(=O)(=O)N1C[C@@H]2CC[C@H]1CN(C)C2,-22,2.24
CCCCOCC(=O)N1CCN(c2ncccn2)[C@H]2CS(=O)(=O)C[C@H]21,-6,1.08
CCc1nnc(-n2nc(C)cc2-c2ccccc2)n1N,3,-0.48
Cn1ccc(CC(=O)N(CC(=O)Nc2ccc(F)cc2)C(C)(C)C)n1,28,-3.74
O=C(Cc1cccc(C(F)(F)F)n1)Nc1cc([C@@H]2CCCO2)n[nH]1,0,-0.02
Cc1ccc(S(=O)(=O)N2CC(=O)N(CCC3=CCCCC3)[C@](C)(C(=O)NCCC(C)C)C2)cc1,-8,0.94

Structure (SMILES),% Inhibition [%],Z score
Cc1nc(Cn2ccnn2)n(CC2CCCCC2)n1,-1,0.19
CC1(C)CCN(C(=O)NCCc2cscn2)CC(C)(C)C1,-11,1.68
Cc1cccn2cc(CN3CCCC[C@@H]3Cn3cncn3)nc12,-16,1.62
Fc1ccc(-c2nnc(Cc3nc(-c4ccc(Cl)cc4)no3)o2)cc1,4,-0.73
CC(C)c1cc(N2CC[C@H](c3ccccc3C(=O)O)C2)nc(C(F)(F)F)n1,-7,0.91
Cc1ncc(C(=O)N2CC(C)(C)Oc3cc(Br)ccc32)s1,0,0.01
Cc1noc(-c2c(C)[nH]c(C)c2S(=O)(=O)Nc2ccc(C(C)C)cc2)n1,-9,1.78
Cc1nc(N)nc(N2CCC(NCc3cn4ccccc4n3)CC2)c1Cl,-6,1.32
O=C(N(Cc1ccccc1)Cc1ccccc1)C(F)(F)OC(F)(F)C(F)(F)OC(F)(F)C(F)(F)OC(F)(F)C(F)(F)OC(F)(F)F,4,-0.46
CCOC(=O)c1nc2c(s1)N(Cc1conc1C)CCCC2,-3,0.3
CC(C)(C)c1ccc(-c2noc3nc(Cc4ccccc4)nc(N4CCCN(C(=O)Nc5cccc(F)c5)CC4)c23)cc1,6,-0.68
Cc1cc(C(=O)N2CCCCC2)c2c(=O)n(Cc3cccc(C#N)c3)c(=O)n(-c3ccccc3)c2n1,2,-0.26
CCOCc1nnc(NCc2cccn2C)o1,-8,1.49
Cc1c([C@H](C)NCc2cncnc2)oc2ccccc12,-15,1.68
N#Cc1cc(Br)ccc1N1CC(c2nc(C3CCC3)no2)C1,-12,1.56
CCOC(=O)N(C)CC(=O)Nc1cccc(F)c1,-1,0.08
Cn1nccc1NC(=O)Cn1ccc(-c2c(F)cccc2F)n1,-5,0.62
O=S(=O)(Nc1ccc(-c2ccc[nH]2)cc1)c1ccccc1F,-13,1.8
O=C(c1ccc(-n2cnnn2)cc1)N1CC2(CCC2)c2c(F)cccc21,7,-0.68
CNC(=O)[C@@H]1CN(C(=O)c2cc(C)n(Cc3ccco3)c2C)C[C@H]1CO,-11,1.66
N#Cc1ccc(N2CCC(OCCOc3ccccc3)CC2)cn1,-7,0.59
CCS(=O)(=O)C1CN(C(=O)c2cccn2C2CCCC2)C1,-4,0.63

Structure (SMILES),% Inhibition [%],Z score
Cc1cc(N(C)CCCN2CCOCC2)ccn1,8,-1.12
N#Cc1cc(F)c(N2CCC(NC(=O)c3ccoc3)CC2)c(F)c1,-5,0.64
COC1(C(=O)Nc2ccc(Oc3ccc(CO)cc3)cc2)CCC(F)(F)CC1,-9,1.11
O=C1C(NC2CCCn3ccnc32)CCCN1c1ccc(Cl)cc1Cl (stereo not given),-7,1.16
O=S(=O)(CC1CCOCC1)N[C@@H](c1ccccc1)c1cccnc1,-1,0.24
O=C(COc1ccccc1)N1CC[C@H]2[C@H](CCCN2Cc2cccs2)C1,-10,1.37
O=C(NCCc1ccccc1)N[C@H]1CCCN(c2cc(-c3ccncc3)n[nH]2)C1,-4,0.35
O=C(c1cnc2ccccn12)N1CCC(c2nc(-c3ccccc3)no2)CC1,1,-0.12
O=S(=O)(NCCN1CCn2ccnc2C1)c1ccccc1,0,-0.06
Cc1ncsc1CCC(=O)NCCCc1nnc2ccccn12,8,-1.06
C[C@H]1OCC[C@H]1Nc1cc(C#N)ccn1,-13,2.48
COc1ccc(COCC(=O)Nc2ccc(CN(C)C)cn2)cc1,-5,1
CCOc1ccc(CC(=O)Nc2cccc3[nH]ccc23)nc1,1,-0.16
CC(C)(C)CC(NC(=O)N1CCC[C@H]1CO)C(F)(F)F (stereo not given in full),-4,0.69
O=C1[C@@H]2C(c3ccccc3Cl)=NO[C@@H]2C(=O)N1c1cccc2ccccc12,6,-0.57
Cc1cc(C(=O)Nc2cnns2)n(C)n1,-3,0.44
CCc1ccc(S(=O)(=O)NC(=O)C2CC3(CCC3)C2)cc1,-1,0.09
CCOCCC1(CNC2CCCC2C2COCCN2C(=O)OC(C)(C)C)CCCC1 (stereo not given),1,-0.11
CN(CC(C)(CO)CO)C(=O)Nc1cccc(F)c1F,-9,1.62
Cc1cccc2oc(CNC(=O)CCn3ccc(=O)[nH]c3=O)nc12,-16,2.02
Cc1nnc2c(NC(=O)NCc3ccco3)cccn12,-21,4.02
CC(=O)c1cccc(NC(=O)Cn2c(=O)n(-c3ccccc3)c(=O)c3c2cc(C)n3C)c1,-12,1.12

Structure (SMILES),% Inhibition [%],Z score
O=C(CN1C(=O)c2ccccc2C1=O)N1CCN(Cc2ccc3c(c2)OCO3)CC1,-9,1.69
COc1ccc(NS(=O)(=O)c2cc(-c3ccno3)oc2C)cc1,-9,1.07
CC1(C)CCC[C@@](O)(CNc2nc(C3CC3)ns2)C1,-4,0.35
CC1(C)C(N)CC1NC(=O)c1cccc(F)c1F (stereo not given),-4,0.66
Cn1cc(NC(=O)NC[C@H]2CCCN2CC(F)(F)F)nn1,6,-1.16
O[C@H]1CCCN(c2ccnc(N3CCOc4ccccc4C3)n2)C1,-11,1.43
CCOC(=O)N1CCN(C(=O)Cn2cnc3c(nnn3-c3ccc(OC)c(OC)c3)c2=O)CC1,-2,0.39
O=C(Nc1cccc(F)c1)C1CCN(C(=O)c2ncccc2O)CC1,-7,0.92
CCOC(=O)C(=O)NCCN1CCOCC1,-2,0.29
CNC(=O)c1snc(-c2ccncc2)c1N,-2,0.18
COc1ccc(CNC(=O)[C@]2(C)Cn3cnc(C(=O)Nc4ccc(C)cc4)c3C(=O)N2C2CC2)cc1,-3,0.5
CCCCn1c(N)c(N(Cc2ccco2)C(=O)COC2CCCC2)c(=O)[nH]c1=O,5,-0.7
COc1ccccc1-n1nc(-c2ccccc2)n(CC(=O)NC2CC2)c1=O,-2,0.31
CCc1cccc(NC(=O)Cn2c(=O)n(C(C)C)c(=O)c3nscc32)c1,-5,0.65
CC1(C)C(CNC(=O)C2CS(=O)(=O)CC2C(F)(F)F)C1(C)C (stereo not given),17,-1.92
CC(C)CCNC(=O)CN1C(=O)CCn2nc(-c3cccc(Cl)c3)cc21,-12,1.2
CCN(CCc1nc2ccccc2[nH]1)Cc1nnc(C)s1,5,-0.88
Nc1ccnc(CONC(=O)CCC2CCCCC2)n1,3,-0.53
O=C(N[C@H]1CCCCNC1=O)c1cc2c(F)cccc2s1,-42,4.96
